PubChem BioAssay (NCATS)
Where “and” joins values, the source holds several entries; their conditions need not be identical. Equal values may be shown once. The shares of active, inactive and inconclusive entries below differ from those in the screen. Potencies beside an inconclusive call are fits to weak or partial responses and may not hold up. Calls of active or inactive are those of the source. Calls come from the whole dose curve; as a rule, active = well fitted cell-killing curve with a large enough effect; inconclusive = small, poorly fitted or top-dose-only effect, or effect the other way; inactive = no such curve, though single readings can be large or run the other way.

How the values were obtained:
[1] = Viability qHTS for spleen associated tyrosine kinase inhibitor (SYKi) naive MV4-11 cells (AID 1963823); settings: MV4-11 AML viability, CellTiter-Glo luminescence, 72 h; series mostly up to 45 µM; note: nearly all actives have a fitted effect of over 40% in size
How it was run: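 SYKi-naive MV4-11 AML cells, 500 per well, were exposed to library compounds for 72 hr at 37 C, 5% CO2. Viability was then read by CellTiter-Glo luminescence after 10 min at room temperature.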

[2] = Viability qHTS for spleen associated tyrosine kinase inhibitor (SYKi) drug resistant MV4-11 cells (AID 1963824); settings: SYKi-resistant MV4-11 viability, CellTiter-Glo, 72 h; series mostly up to 45 µM; note: nearly all actives have a fitted effect of over 35% in size
How it was run: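 SYK-inhibitor-resistant MV4-11 AML cells were seeded at 500 per well onto compound and cultured 72 hours (37 °C, 5% CO2). CellTiter-Glo was then added, and after 10 min at room temperature, luminescence gave viability.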
Potency is the fitted concentration of half-maximal effect; tags give direction and shape of the fitted curve.

| Structure (SMILES) | Potency [1] | Potency [2] |
| --- | --- | --- |
| COc1cc(/C=C(\C#N)C(N)=O)cc(CSc2nc3ccccc3s2)c1O | inconclusive: 14.6 µM [cytotoxic, partial curve] | inconclusive: 9.2 µM [cytotoxic, partial curve, poor fit] |
| C=C1C(=O)O[C@@H]2C[C@H](C)C3=CC(=O)[C@H](O)[C@@]3(C)C[C@H]12 | inconclusive: 5.17 µM [cytotoxic, full curve] | inconclusive: 4.11 µM [cytotoxic, full curve] |
| O=C(Nc1ncc([N+](=O)[O-])s1)c1ccccc1O | inconclusive: 18.4 µM [cytotoxic, single point] | inconclusive: 11.6 µM [cytotoxic, partial curve, poor fit] |
| CCC(C)(CN(C)C)OC(=O)c1ccccc1 (centres undefined) | inactive | inactive |
| C=C[C@@]1(C)C=C2C(=O)C(O)=C3[C@](C)(C(=O)O)CC[C@@H]4C[C@]34[C@]2(O)C(=O)C1 | inconclusive: 1.61 µM [cytotoxic, full curve] | inconclusive: 1.61 µM [cytotoxic, full curve] |
| O=C(CCBr)N1CCN(C(=O)CCBr)CC1 | inconclusive: 2.99 µM [rising, single point] | inconclusive: 33.5 µM [cytotoxic, single point] |
| CC(C)c1c(C(=O)Nc2ccccc2)c(-c2ccccc2)c(-c2ccc(F)cc2)n1CC[C@@H](O)C[C@@H](O)CC(=O)O | active: 2.99 µM and active: 1.93 µM and active: 1.82 µM | active: 2.11 µM and active: 1.09 µM and active: 910 nM |
